Data: the supplement of paper PMC8728848
The other results are listed elsewhere or left out.

Tests used:
Assay in all cases: glycan array binding signal (z-score within array); higher = stronger binding
Settings in all cases: glycan notation: IUPAC condensed, linker removed
[1] = biological target: Neu5Ac(a2-3)Gal(b1-4)[Fuc(a1-3)]GlcNAc
Outline: (§1)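 Glycan array data were curated from 3228 arrays in the Consortium for Functional Glycomics database and kept only where the protein sequence was available. Glycan names were converted to IUPAC-condensed notation, and columns mapping to the same glycan were averaged. The binding signal is a within-array Z-score, averaged across arrays of the same protein sequence at different concentrations or buffers and across linkers. Negative Z-scores can be read as non-binding.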

[2] = biological target: Neu5Ac(a2-3)Gal(b1-4)[Fuc(a1-3)]GlcNAc(b1-3)Gal
Outline: as §1

[3] = biological target: Neu5Ac(a2-3)Gal(b1-4)[Fuc(a1-3)]GlcNAc(b1-3)Gal(b1-4)GlcNAc
Outline: as §1

[4] = biological target: Neu5Ac(a2-3)Gal(b1-4)[Fuc(a1-3)]GlcNAc(b1-3)Gal(b1-4)[Fuc(a1-3)]GlcNAc(b1-3)Gal(b1-4)[Fuc(a1-3)]GlcNAc
Outline: as §1

[5] = biological target: Neu5Ac(a2-3)Gal(b1-4)[Fuc(a1-3)]GlcNAc(b1-6)[Gal(b1-3)]GalNAc
Outline: as §1

[6] = biological target: Neu5Ac(a2-3)Gal(b1-4)[Fuc(a1-3)]GlcNAc6S
Outline: as §1

[7] = biological target: Neu5Ac(a2-3)Gal6S(b1-4)GlcNAc
Outline: as §1

[8] = biological target: Neu5Ac(a2-3)Gal6S(b1-4)[Fuc(a1-3)]GlcNAc
Outline: as §1

Neu5Ac(a2-3)GalNAc = biological target: Neu5Ac(a2-3)GalNAc
Outline: as §1

[9] = biological target: Neu5Ac(a2-3)GalNAc(b1-4)GlcNAc
Outline: as §1

[10] = biological target: Neu5Ac(a2-3)[GalNAc(b1-4)]Gal(b1-4)Glc
Outline: as §1

[11] = biological target: Neu5Ac(a2-3)[GalNAc(b1-4)]Gal(b1-4)GlcNAc
Outline: as §1

[12] = biological target: Neu5Ac(a2-3)[Neu5Ac(a2-6)]GalNAc
Outline: as §1

Neu5Ac(a2-6)Gal = biological target: Neu5Ac(a2-6)Gal
Outline: as §1

Neu5Ac(a2-6)Gal(b1-4)Glc = biological target: Neu5Ac(a2-6)Gal(b1-4)Glc
Outline: as §1

[13] = biological target: Neu5Ac(a2-6)Gal(b1-4)GlcNAc
Outline: as §1

[14] = biological target: Neu5Ac(a2-6)Gal(b1-4)GlcNAc(b1-2)Man(a1-3)[Gal(b1-4)GlcNAc(b1-2)Man(a1-6)]Man(b1-4)GlcNAc(b1-4)GlcNAc
Outline: as §1

[15] = biological target: Neu5Ac(a2-6)Gal(b1-4)GlcNAc(b1-2)Man(a1-3)[GlcNAc(b1-2)Man(a1-6)]Man(b1-4)GlcNAc(b1-4)GlcNAc
Outline: as §1

[16] = biological target: Neu5Ac(a2-6)Gal(b1-4)GlcNAc(b1-2)Man(a1-3)[GlcNAc(b1-2)Man(b1-4)GlcNAc(b1-2)Man(a1-6)]Man(b1-4)GlcNAc(b1-4)GlcNAc
Outline: as §1

[17] = biological target: Neu5Ac(a2-6)Gal(b1-4)GlcNAc(b1-2)Man(a1-3)[Neu5Ac(a2-6)Gal(b1-4)GlcNAc(b1-2)Man(a1-6)]Man(b1-4)GlcNAc(b1-4)GlcNAc
Outline: as §1

[18] = biological target: Neu5Ac(a2-6)Gal(b1-4)GlcNAc(b1-2)Man(a1-6)[Gal(b1-4)GlcNAc(b1-2)Man(a1-3)]Man(b1-4)GlcNAc(b1-4)GlcNAc
Outline: as §1

[19] = biological target: Neu5Ac(a2-6)Gal(b1-4)GlcNAc(b1-2)Man(a1-6)[GlcNAc(b1-2)Man(a1-3)]Man(b1-4)GlcNAc(b1-4)GlcNAc
Outline: as §1

[20] = biological target: Neu5Ac(a2-6)Gal(b1-4)GlcNAc(b1-3)Gal(b1-4)GlcNAc
Outline: as §1

[21] = biological target: Neu5Ac(a2-6)Gal(b1-4)GlcNAc(b1-3)Gal(b1-4)[Fuc(a1-3)]GlcNAc(b1-3)Gal(b1-4)[Fuc(a1-3)]GlcNAc
Outline: as §1

[22] = biological target: Neu5Ac(a2-6)Gal(b1-4)GlcNAc6S
Outline: as §1

Neu5Ac(a2-6)GalNAc = biological target: Neu5Ac(a2-6)GalNAc
Outline: as §1

[23] = biological target: Neu5Ac(a2-6)GalNAc(b1-4)GlcNAc
Outline: as §1

Neu5Ac(a2-8)Neu5Ac = biological target: Neu5Ac(a2-8)Neu5Ac
Outline: as §1

[24] = biological target: Neu5Ac(a2-8)Neu5Ac(a2-3)Gal(b1-4)Glc
Outline: as §1

[25] = biological target: Neu5Ac(a2-8)Neu5Ac(a2-3)[GalNAc(b1-4)]Gal(b1-4)Glc
Outline: as §1

[26] = biological target: Neu5Ac(a2-8)Neu5Ac(a2-8)Neu5Ac
Outline: as §1

[27] = biological target: Neu5Ac(a2-8)Neu5Ac(a2-8)Neu5Ac(a2-3)Gal(b1-4)Glc
Outline: as §1

[28] = biological target: Neu5Ac(a2-8)Neu5Ac(a2-8)Neu5Ac(a2-3)[GalNAc(b1-4)]Gal(b1-4)Glc
Outline: as §1

[29] = biological target: Neu5Ac(a2-8)Neu5Ac(a2-8)Neu5Ac(a2-8)Neu5Ac(a2-3)[GalNAc(b1-4)]Gal(b1-4)Glc
Outline: as §1

[30] = biological target: Neu5Ac(b2-6)Gal(b1-4)GlcNAc
Outline: as §1

Neu5Ac(b2-6)GalNAc = biological target: Neu5Ac(b2-6)GalNAc
Outline: as §1

[31] = biological target: Neu5Ac9Ac(a2-6)Gal(b1-4)GlcNAc
Outline: as §1

[32] = biological target: Neu5Gc(a2-3)Gal(b1-3)GlcNAc
Outline: as §1

[33] = biological target: Neu5Gc(a2-3)Gal(b1-3)[Fuc(a1-4)]GlcNAc
Outline: as §1

Neu5Gc(a2-3)Gal(b1-4)Glc = biological target: Neu5Gc(a2-3)Gal(b1-4)Glc
Outline: as §1

[34] = biological target: Neu5Gc(a2-3)Gal(b1-4)GlcNAc
Outline: as §1

[35] = biological target: Neu5Gc(a2-3)Gal(b1-4)[Fuc(a1-3)]GlcNAc
Outline: as §1

[36] = biological target: Neu5Gc(a2-6)Gal(b1-4)GlcNAc
Outline: as §1

Neu5Gc(a2-6)GalNAc = biological target: Neu5Gc(a2-6)GalNAc
Outline: as §1

[37] = biological target: Neu5Gc(b2-6)Gal(b1-4)GlcNAc
Outline: as §1

B1: Glycodelin A (Homo sapiens), P09466 (protein)
chain: MLCLLLTLGVALVCGVPAMDIPQTKQDLELPKLAGTWHSMAMATNNISLMATLKAPLRVHITSLLPTPEDNLEIVLHRWENNSCVEKKVLGEKTENPKKFKINYTVANEATLLDTDYDNFLFLCLQDTTTPIQSMMCQYLARVLVEDDEIMQGFIRAFRPLPRHLWYLLDLKQMEEPCRF
B1 was tested, and the “glycan array binding signal (z-score)” value [1] was 1.59, the “glycan array binding signal (z-score)” value [2] was -0.441 and the “glycan array binding signal (z-score)” value [3] was -0.47. The “glycan array binding signal (z-score)” value [4] was -0.374, the “glycan array binding signal (z-score)” value [5] was 2.67 and the “glycan array binding signal (z-score)” value [6] was -0.384. For the same binder, the “glycan array binding signal (z-score)” value [7] was -0.381, the “glycan array binding signal (z-score)” value [8] was -0.448 and the “glycan array binding signal (z-score)” value (Neu5Ac(a2-3)GalNAc) was -0.477. For the same binder, the “glycan array binding signal (z-score)” value [9] was 1.8, the “glycan array binding signal (z-score)” value [10] was -0.29 and the “glycan array binding signal (z-score)” value [11] was -0.435. For the same binder, the “glycan array binding signal (z-score)” value [12] was -0.3, the “glycan array binding signal (z-score)” value (Neu5Ac(a2-6)Gal) was -0.479 and the “glycan array binding signal (z-score)” value (Neu5Ac(a2-6)Gal(b1-4)Glc) was -0.437. For the same binder, the “glycan array binding signal (z-score)” value [13] was 0.199, the “glycan array binding signal (z-score)” value [14] was -0.431 and the “glycan array binding signal (z-score)” value [15] was -0.196. For the same binder, the “glycan array binding signal (z-score)” value [16] was 2.02, the “glycan array binding signal (z-score)” value [17] was 2.29 and the “glycan array binding signal (z-score)” value [18] was -0.452. The “glycan array binding signal (z-score)” value [19] was 1.85, the “glycan array binding signal (z-score)” value [20] was -0.464 and the “glycan array binding signal (z-score)” value [21] was -0.51. For the same binder, the “glycan array binding signal (z-score)” value [22] was -0.335, the “glycan array binding signal (z-score)” value (Neu5Ac(a2-6)GalNAc) was 4.31 and the “glycan array binding signal (z-score)” value [23] was 0.353. The “glycan array binding signal (z-score)” value (Neu5Ac(a2-8)Neu5Ac) was -0.379, the “glycan array binding signal (z-score)” value [24] was -0.442 and the “glycan array binding signal (z-score)” value [25] was -0.512. For the same binder, the “glycan array binding signal (z-score)” value [26] was -0.459, the “glycan array binding signal (z-score)” value [27] was -0.388 and the “glycan array binding signal (z-score)” value [28] was 1.47. The “glycan array binding signal (z-score)” value [29] was 4.64, the “glycan array binding signal (z-score)” value [30] was -0.305 and the “glycan array binding signal (z-score)” value (Neu5Ac(b2-6)GalNAc) was 3.68. For the same binder, the “glycan array binding signal (z-score)” value [31] was -0.118, the “glycan array binding signal (z-score)” value [32] was -0.454 and the “glycan array binding signal (z-score)” value [33] was -0.513. For the same binder, the “glycan array binding signal (z-score)” value (Neu5Gc(a2-3)Gal(b1-4)Glc) was -0.359, the “glycan array binding signal (z-score)” value [34] was -0.359 and the “glycan array binding signal (z-score)” value [35] was -0.415. For the same binder, the “glycan array binding signal (z-score)” value [36] was -0.316, the “glycan array binding signal (z-score)” value (Neu5Gc(a2-6)GalNAc) was -0.239 and the “glycan array binding signal (z-score)” value [37] was -0.413.
